# Measurements: patent US20180057551A1 (AMYLONIX, published 2018)
# Changes are numbered by the printed parent chain.
# B1: AQHDEALE-[ABPP125]-VDYV-[ABD]-YVPG (designed binder)
# chain: AQHDEALEAGRERVYLPNLNADQLCAFIRSLEDDPSQNANLLAEAKKLNDAQAPASSSSGSSSSGRASAGGERVYFPNLNADQLCAFIRSLEDDPSQSANLLAEAKKLNDAQAPKVDYVLAEAKVLANRELDKYGVSDYYKNLINNAKTVEGVKALIDEILAALPYVPG
# notes: periplasmic ABD fusion
# B2: AQHDEALE-[ABPP139]-VDYV-[ABD]-YVPG (designed binder)
# chain: B1 chain with R29N, N38S, R73I, R89Q, P95R
# notes: periplasmic ABD fusion
# B3: AQHDEALE-[ABPP135]-VDYV-[ABD]-YVPG (designed binder)
# chain: B1 chain with R11G, R29Q, N38S, F76L, D82H
# notes: periplasmic ABD fusion
# B4: AQHDEALE-[ABPP146]-VDYV-[ABD]-YVPG (designed binder)
# chain: B1 chain with R11G, D22H, R29Q, N38Q, G71R, F76L
# notes: periplasmic ABD fusion
# B5: AQHDEALE-[ABPP127]-VDYV-[ABD]-YVPG (designed binder)
# chain: B1 chain with D22H, P35S, N38S, R73I, R89N
# notes: periplasmic ABD fusion
# B6: AQHDEALE-[ABPP132]-VDYV-[ABD]-YVPG (designed binder)
# chain: B1 chain with R11G, N38S, F76L, R89Q
# notes: periplasmic ABD fusion
# B7: AQHDEALE-[ABPP133]-VDYV-[ABD]-YVPG (designed binder)
# chain: B1 chain with N38S, R73I, F76I, P77T, R89Q
# notes: periplasmic ABD fusion
# B8: AQHDEALE-[ABPP140]-VDYV-[ABD]-YVPG (designed binder)
# chain: B1 chain with R11G, P35R, N38S, R73I, P95S
# notes: periplasmic ABD fusion
# B9: AQHDEALE-[ABPP130]-VDYV-[ABD]-YVPG (designed binder)
# chain: B1 chain with R11G, R13I, L16F, N38Q, G71R, F76L, L91I, P95Q, S98R
# notes: periplasmic ABD fusion
# B10: AQHDEALE-[ABPP147]-VDYV-[ABD]-YVPG (designed binder)
# chain: B1 chain with N38S, G71R, F76L, P95R, S98Q
# notes: periplasmic ABD fusion
# B11: AQHDEALE-[ABPP143]-VDYV-[ABD]-YVPG (designed binder)
# chain: B1 chain with P17R, D22H, N38S, R73I, F76L, D82H
# notes: periplasmic ABD fusion
# B12: AQHDEALE-[ABPP128]-VDYV-[ABD]-YVPG (designed binder)
# chain: B1 chain with R11G, P17T, N38S, G71R, F76L, S98Q
# notes: periplasmic ABD fusion
# B13: AQHDEALE-[ABPP134]-VDYV-[ABD]-YVPG (designed binder)
# chain: B1 chain with R11G, R13I, D22H, N38S, R73M, F76L
# notes: periplasmic ABD fusion
# B14: AQHDEALE-[ABPP126]-VDYV-[ABD]-YVPG (designed binder)
# chain: B1 chain with D22H, R29Q, N38S, F76L
# notes: periplasmic ABD fusion
# B15: AQHDEALE-[ABPP145]-VDYV-[ABD]-YVPG (designed binder)
# chain: B1 chain with R11G, R13I, L16F, D22H, N38S, G71R, F76L, P95R, S98Q
# notes: periplasmic ABD fusion
# B16: AQHDEALE-[ABPP131]-VDYV-[ABD]-YVPG (designed binder)
# chain: B1 chain with R11G, P17T, N38S, G71R, F76L, D82H, S98Q
# notes: periplasmic ABD fusion
# B17: AQHDEALE-[ABPP136]-VDYV-[ABD]-YVPG (designed binder)
# chain: B1 chain with N38S, R73I, R89Q, P95R
# notes: periplasmic ABD fusion
# B18: AQHDEALE-[ABPP148]-VDYV-[ABD]-YVPG (designed binder)
# chain: B1 chain with R11G, L16F, P17T, N38Q, R73I, D82H, R89N
# notes: periplasmic ABD fusion
# B19: AQHDEALE-[ABPP129]-VDYV-[ABD]-YVPG (designed binder)
# chain: B1 chain with R11G, P17T, N38S, G71R, F76L, P95R, S98Q
# notes: periplasmic ABD fusion
# B20: AQHDEALE-[ABPP137]-VDYV-[ABD]-YVPG (designed binder)
# chain: B1 chain with R11G, D22H, N38S, R73I, D82H
# notes: periplasmic ABD fusion
# B21: AQHDEALE-[ABPP144]-VDYV-[ABD]-YVPG (designed binder)
# chain: B1 chain with R11G, D22H, N38Q, G71R, F76L, S98Q
# notes: periplasmic ABD fusion
# Molecular target: T1, human Aβ1-40 peptide (human, biotin at the C-terminus (flow cytometry, Examples 2-4) or at the N-terminus (SPR, ELISA); unlabeled plus Alexa488/Alexa647-labeled in FCS)
# T1 construct: synthetic peptide (AnaSpec); one entry for all labelled forms, label named under assay; also called hAβ1-40; Aβ40
# Assay: sandwich ELISA, periplasmic ABD fusion, 2 nM biotinylated hAβ1-40
# Experimental: Half-area 96-well ELISA plates (Costar, cat. no. 3690) were coated at 4° C. overnight with 2 μg/ml of an anti-ABD goat antibody (produced in-house) diluted in coating buffer (50 mM sodium carbonate, pH 9.6; Sigma, cat. no. C3041).
row,Binder,ELISA response (absorbance 450 nm)
1,B1,≥ 0.2 AU
2,B2,≥ 0.2 AU
3,B3,≥ 0.2 AU
4,B4,≥ 0.2 AU
5,B5,≥ 0.2 AU
6,B6,≥ 0.2 AU
7,B7,≥ 0.2 AU
8,B8,≥ 0.2 AU
9,B9,≥ 0.2 AU
10,B10,≥ 0.2 AU
11,B11,≥ 0.2 AU
12,B12,≥ 0.2 AU
13,B13,≥ 0.2 AU
14,B14,≥ 0.2 AU
15,B15,≥ 0.2 AU
16,B16,≥ 0.2 AU
17,B17,≥ 0.2 AU
18,B18,≥ 0.2 AU
19,B19,≥ 0.2 AU
20,B20,≥ 0.2 AU
21,B21,≥ 0.2 AU

# Molecular target: T1, human Aβ1-40 peptide
# T1 sequence (peptide, as listed by the source): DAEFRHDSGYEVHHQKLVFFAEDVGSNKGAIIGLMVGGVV
# Assay: ELISA, fusion captured by anti-ABD antibody, biotinylated hAβ1-40 titrated
row,Binder,EC50
1,B1,4.3 nM
2,B2,8.4 nM
3,B3,6.3 nM
4,B4,8.6 nM
5,B5,5.7 nM
6,B6,8.1 nM
7,B7,420 nM
8,B8,41 nM
9,B9,6 nM
10,B10,7.9 nM
11,B11,9.3 nM
12,B12,5.2 nM
13,B13,27 nM
14,B14,5.9 nM
15,B15,9.4 nM
16,B16,6.8 nM
17,B17,7.9 nM
18,B18,6 nM
19,B19,9 nM
20,B20,8.4 nM
21,B21,16 nM

# Molecular target: T1, human Aβ1-40 peptide
# Assay: SPR Biacore 2000, periplasmic sample over immobilised biotinylated hAβ1-40
row,Binder,Response RU
1,B1,18.4 RU
2,B2,10.4 RU
3,B3,14.9 RU
4,B4,15.2 RU
5,B5,9.1 RU
6,B6,23 RU
7,B7,14.5 RU
8,B8,12.3 RU
9,B9,21 RU
10,B10,17 RU
11,B11,15.8 RU
12,B12,33 RU
13,B13,10.3 RU
14,B14,17.8 RU
15,B15,15.2 RU
16,B16,18.9 RU
17,B17,13.7 RU
18,B18,10.2 RU
19,B19,35.8 RU
20,B20,15.3 RU
21,B21,10 RU

# Molecular target: T2, anti-ABD goat antibody (produced in-house)
# T2 construct: also called Anti-ABD surface
# Assay: SPR Biacore 2000, periplasmic sample over immobilised anti-ABD goat antibody
row,Binder,Response RU
1,B1,38.6 RU
2,B2,32.7 RU
3,B3,35 RU
4,B4,36.7 RU
5,B5,31.9 RU
6,B6,45.3 RU
7,B7,38.9 RU
8,B8,36.5 RU
9,B9,44.6 RU
10,B10,39.2 RU
11,B11,31.7 RU
12,B12,48.7 RU
13,B13,40.8 RU
14,B14,37.8 RU
15,B15,34.3 RU
16,B16,34.7 RU
17,B17,39.5 RU
18,B18,28.7 RU
19,B19,43.6 RU
20,B20,35.2 RU
21,B21,32.1 RU
